According to the supplement of paper PMC4967469:
A lower IC50 marks a more sensitive line; fits outside the tested doses are given as limits. AUC, from the same fit, is the share of area under the viability curve across the 256-fold dose range; the more sensitive the line, the further below 1. Any top dose called inferred was calculated from the reported fits.

Columns and labels:
Assay in all cases: Viability of human cancer cell lines after 72 h of drug (GDSC screen)
SL 0101-1 = compound: CC(=O)O[C@@H]1[C@@H](OC(C)=O)[C@@H](O)[C@H](Oc2c(-c3ccc(O)cc3)oc3cc(O)cc(O)c3c2=O)O[C@H]1C [SL 0101-1]; conditions: top dose 10 µM; top dose inferred
Experimental: (§1)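 Human cancer cell lines in 384-well plates, medium with 10% serum, drug for 72 h over a 256-fold dose range (nine 2-fold or five 4-fold steps up to the top dose). Adherent lines were fixed and stained with the nucleic acid dye Syto60, suspension lines read with resazurin; signal relative to control wells, capped at 0 and 100%. One two-parameter sigmoid per drug and line, fitted in a mixed model over all curves with the slope shared within a line.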

XMD15-27 = compound: C=CC(=O)Nc1ccc(C(=O)c2sc(Nc3ccc(N4CCN(C)CC4)cc3OC)nc2N)cc1 [XMD15-27]; conditions: top dose 10.24 µM; top dose inferred
Experimental: as §1

AS605240 = compound: O=C1NC(=O)/C(=C\c2ccc3nccnc3c2)S1 [AS605240]; conditions: top dose inferred
Experimental: as §1

Cell Line	AUC (SL 0101-1)	IC50 (SL 0101-1) [µM]	AUC (XMD15-27)	IC50 (XMD15-27) [µM]	AUC (AS605240)	IC50 (AS605240) [µM]
NB7 (neuroblastoma, adherent)	0.986	> 10	0.986	> 10.2	–	–
JHU-011 (head and neck, adherent)	0.975	> 10	0.972	> 10.2	–	–
PANC-10-05 (pancreas, adherent)	0.953	> 10	0.982	> 10.2	–	–
MOLM-13 (acute myeloid leukaemia, suspension)	0.975	> 10	0.956	> 10.2	–	–
CHSA0011 (chondrosarcoma, adherent)	0.971	> 10	0.974	> 10.2	–	–
HUTU-80 (digestive system, adherent)	0.991	> 10	0.98	> 10.2	–	–
MKN1 (stomach, adherent)	0.958	> 10	0.985	> 10.2	–	–
U-118-MG (glioma, adherent)	0.972	> 10	0.985	> 10.2	–	–
IHH-4 (thyroid, semi-adherent)	0.993	> 10	0.992	> 10.2	–	–
H-EMC-SS (chondrosarcoma, adherent)	0.981	> 10	0.977	> 10.2	–	–
LB996-RCC (kidney, adherent)	0.936	> 10	0.983	> 10.2	–	–
NCI-H1355 (lung adenocarcinoma, adherent)	0.939	> 10	0.978	> 10.2	–	–
RH-41 (rhabdomyosarcoma, adherent)	0.96	> 10	0.992	> 10.2	–	–
HCT-116 (large intestine, adherent)	0.965	> 10	0.971	> 10.2	–	–
HuP-T4 (pancreas, adherent)	0.969	> 10	0.968	> 10.2	–	–
HOS (osteosarcoma, adherent)	0.981	> 10	0.991	> 10.2	–	–
HLE (liver, adherent)	0.985	> 10	0.989	> 10.2	–	–
CFPAC-1 (pancreas, adherent)	0.972	> 10	0.982	> 10.2	–	–
CAL-54 (kidney, adherent)	0.927	> 10	0.985	> 10.2	–	–
U031 (kidney, adherent)	0.969	> 10	0.977	> 10.2	–	–
SK-OV-3 (ovary, adherent)	0.981	> 10	0.968	> 10.2	–	–
HT-144 (melanoma, adherent)	0.949	> 10	0.963	> 10.2	–	–

Cell Line	AUC (SL 0101-1)	IC50 (SL 0101-1) [µM]	AUC (XMD15-27)	IC50 (XMD15-27) [µM]	AUC (AS605240)	IC50 (AS605240) [µM]
SW620 (large intestine, adherent)	0.99	> 10	0.937	> 10.2	–	–
H2591 (mesothelioma, adherent)	0.974	> 10	0.982	> 10.2	–	–
OVCAR-3 (ovary, adherent)	0.949	> 10	0.987	> 10.2	–	–
JAR (urogenital system, adherent)	0.984	> 10	0.972	> 10.2	–	–
NUGC-3 (stomach, adherent)	0.946	> 10	0.984	> 10.2	–	–
HT-29 (large intestine, adherent)	0.988	> 10	0.971	> 10.2	–	–
NCI-H358 (lung adenocarcinoma, adherent)	0.96	> 10	0.953	> 10.2	–	–
HT-1197 (bladder, adherent)	0.985	> 10	0.985	> 10.2	–	–
CHP-134 (neuroblastoma, suspension)	0.783	5.48	0.98	> 10.2	–	–
THP-1 (acute myeloid leukaemia, suspension)	0.991	> 10	0.977	> 10.2	–	–
NCI-H2085 (lung adenocarcinoma, adherent)	0.981	> 10	0.986	> 10.2	–	–
BCPAP (thyroid, adherent)	0.985	> 10	0.989	> 10.2	–	–
MCF7 (breast, adherent)	0.974	> 10	0.986	> 10.2	–	–
MFE-319 (endometrium, adherent)	0.981	> 10	0.989	> 10.2	–	–
LK-2 (lung squamous cell carcinoma, adherent)	0.972	> 10	0.989	> 10.2	–	–
ChaGo-K-1 (non-small cell lung carcinoma, adherent)	0.944	> 10	0.982	> 10.2	–	–
NCI-H522 (lung adenocarcinoma, adherent)	0.954	> 10	0.98	> 10.2	–	–
HCC1954 (breast, adherent)	0.816	6.72	0.969	> 10.2	–	–
SU-DHL-8 (B-cell lymphoma, suspension)	0.988	> 10	0.969	> 10.2	–	–
NCI-H2009 (lung adenocarcinoma, adherent)	0.987	> 10	0.986	> 10.2	–	–
KON (head and neck, adherent)	0.987	> 10	0.985	> 10.2	–	–
PC-3 (prostate, adherent)	0.939	> 10	0.975	> 10.2	–	–

Cell Line	AUC (SL 0101-1)	IC50 (SL 0101-1) [µM]	AUC (XMD15-27)	IC50 (XMD15-27) [µM]	AUC (AS605240)	IC50 (AS605240) [µM]
NCI-H647 (non-small cell lung carcinoma, adherent)	0.976	> 10	0.939	> 10.2	–	–
SK-MEL-28 (melanoma, adherent)	0.975	> 10	0.988	> 10.2	–	–
BHY (head and neck, adherent)	0.944	> 10	0.978	> 10.2	–	–
BPH-1 (prostate, adherent)	0.977	> 10	0.976	> 10.2	–	–
ES3 (Ewing sarcoma, adherent)	0.973	> 10	0.961	> 10.2	–	–
VM-CUB-1 (bladder, adherent)	0.92	> 10	0.989	> 10.2	–	–
GAMG (glioma, adherent)	0.955	> 10	0.985	> 10.2	–	–
SKM-1 (haematopoietic neoplasm, suspension)	0.837	7.69	–	–	–	–
LXF-289 (lung adenocarcinoma, adherent, top dose 20 µM)	–	–	–	–	0.872	18.4
J82 (bladder, adherent, top dose 20 µM)	–	–	–	–	0.898	> 20
no-11 (glioma, adherent, top dose 20 µM)	–	–	–	–	0.838	18.7
SCC90 (head and neck, adherent, top dose 20 µM)	–	–	–	–	0.668	4.48
SW1783 (glioma, adherent, top dose 20 µM)	–	–	–	–	0.954	> 20
WM1552C (melanoma, adherent, top dose 20 µM)	–	–	–	–	0.836	13.4
CAL-33 (head and neck, adherent, top dose 20 µM)	–	–	–	–	0.833	13
COLO-800 (melanoma, adherent, top dose 20 µM)	–	–	–	–	0.96	> 20
D-283MED (medulloblastoma, adherent, top dose 20 µM)	–	–	–	–	0.979	> 20
H2591 (mesothelioma, adherent, top dose 20 µM)	–	–	–	–	0.959	> 20
Daudi (Burkitt lymphoma, suspension, top dose 20 µM)	–	–	–	–	0.891	18.1
TE-10 (oesophagus, adherent, top dose 20 µM)	–	–	–	–	0.903	> 20
Hs939-T (melanoma, adherent, top dose 20 µM)	–	–	–	–	0.937	> 20
KYSE-50 (oesophagus, adherent, top dose 20 µM)	–	–	–	–	0.9	> 20

Cell Line	AUC (SL 0101-1)	IC50 (SL 0101-1) [µM]	AUC (XMD15-27)	IC50 (XMD15-27) [µM]	AUC (AS605240)	IC50 (AS605240) [µM]
SUP-T1 (T-cell lymphoblastic leukaemia, suspension, top dose 20 µM)	–	–	–	–	0.618	2.55
MRK-nu-1 (breast, suspension, top dose 20 µM)	–	–	–	–	0.989	> 20
MOLM-13 (acute myeloid leukaemia, suspension, top dose 20 µM)	–	–	–	–	0.673	3.66
OE33 (oesophagus, adherent, top dose 20 µM)	–	–	–	–	0.84	17.8
HARA (lung squamous cell carcinoma, adherent, top dose 20 µM)	–	–	–	–	0.756	7.86
A704 (kidney, adherent, top dose 20 µM)	–	–	–	–	0.971	> 20
GCT (soft tissue, adherent, top dose 20 µM)	–	–	–	–	0.982	> 20
HCC38 (breast, adherent, top dose 20 µM)	–	–	–	–	0.925	> 20
UACC-893 (breast, adherent, top dose 20 µM)	–	–	–	–	0.84	> 20
SW684 (fibrosarcoma, adherent, top dose 20 µM)	–	–	–	–	0.98	> 20
P32-ISH (Burkitt lymphoma, suspension, top dose 20 µM)	–	–	–	–	0.947	> 20
GCIY (stomach, adherent, top dose 20 µM)	–	–	–	–	0.696	4.81
MN-60 (B-cell leukaemia, suspension, top dose 20 µM)	–	–	–	–	0.713	5.13
NCI-H1993 (lung adenocarcinoma, adherent, top dose 20 µM)	–	–	–	–	0.774	10.4
K5 (thyroid, adherent, top dose 20 µM)	–	–	–	–	0.811	10.1
HDQ-P1 (breast, adherent, top dose 20 µM)	–	–	–	–	0.876	> 20
EB2 (Burkitt lymphoma, suspension, top dose 20 µM)	–	–	–	–	0.641	2.95
CPC-N (small cell lung carcinoma, suspension, top dose 20 µM)	–	–	–	–	0.975	> 20
HC-1 (hairy cell leukaemia, suspension, top dose 20 µM)	–	–	–	–	0.772	7.43
RT-112 (bladder, adherent, top dose 20 µM)	–	–	–	–	0.864	19.8
COLO-824 (breast, adherent, top dose 20 µM)	–	–	–	–	0.931	> 20
BE2-M17 (neuroblastoma, adherent, top dose 20 µM)	–	–	–	–	0.888	> 20
